From PubChem BioAssay AID1347120 (National Center for Advancing Translational Sciences (NCATS), 2019)
The campaign covered roughly 390,000 compounds. About 930 (0.24%) were called active. Inconclusive results, whose numbers are uncertain, are shown with a selection of clear calls. Calls come from the whole dose curve; as a rule, active = well fitted activation curve with a large enough effect; inconclusive = small, poorly fitted or top-dose-only effect; inactive = no such curve, though single readings can be large or run the other way. Potencies of inconclusive entries are doubtful fits and often do not repeat.

Assay: qHTS for Suppressors of FUS Proteinopathy: Primary screen using FUS-linked yeast assay; note: nearly all actives have a fitted effect of over 55% in size;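 for growth rescue (activation): plate controls were DMSO vehicle for no effect and reference control for full effect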
Conditions: S. cerevisiae FUS-expressing, OD600, 24 h; Potency: growth rescue; growth rescue (activation): at 76.6 µM (top of the series)
Procedure, shortened: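 Toxicity suppression screen in FUS-yeast. Cells induced with 2% galactose, starting OD 0.005, treated 24hr at 30C with compounds at multiple final concentrations; growth by OD600.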
Potency is the fitted concentration of half-maximal effect; tags give direction and shape of the fitted curve.

SMILES	Potency	growth rescue (activation)
C=CCC[C@@H](Cc1ccc(F)cc1)C(=O)OC[C@H](C)NC(=O)[C@@H](CC=C)CC(=O)N(CCO)Cc1ccccc1	inconclusive: 14.1 µM [activator, partial curve, poor fit]	
NC(c1csc(NC(=O)Nc2ccccc2)n1)C1CCCCC1 (stereo unspecified)	inconclusive: 50.1 µM [activator, single point]	
C=CCN(Cc1cc(OC)ccc1OC)C(=O)c1cc2ccc(OC)cc2[nH]1	inconclusive: 35.5 µM [activator, single point]	
COC(=O)Cc1nc2ccccc2[nH]1	inconclusive: 50.1 µM [activator, single point]	
COC(=O)[C@]12C[C@H](CC(=O)NCc3ccc(C)o3)C(=O)N(CCC3=CCCCC3)C1=C[C@H](C1CCCC1)O[C@@H]2C	inconclusive: 25.1 µM [activator, single point]	
COc1ccc(N2CCN(C(=O)c3cc(-c4ccc(F)cc4)[nH]c3C)CC2)cc1	inconclusive: 39.8 µM [activator, single point]	
Cn1c(=O)c(C(=O)CN2CCCc3ccccc32)c(N)n(Cc2ccccc2)c1=O	inconclusive: 20 µM [activator, partial curve, poor fit]	
COc1ccc(-c2csc(C3=C(O)CN(Cc4ccc(Cl)cc4)C3=N)n2)cc1OC	inconclusive: 17.8 µM [activator, partial curve, poor fit]	
COc1ccc(-c2oc3ccc(N4CCOCC4)cc3c2C#CC2(O)CCCCC2)cc1	inconclusive: 20 µM [activator, single point]	
COc1cc(C(=O)Nc2nc3ccccc3s2)ccc1OCc1c(C)noc1C	inconclusive: 39.8 µM [activator, partial curve, poor fit]	
CC(C)c1ccc(C2c3[nH]c4ccccc4c3C[C@H]3C(=O)N(c4ccccc4C(=O)N4CCC[C@H]4C(=O)O)C(=O)N23)cc1 (stereo partly specified)	inconclusive: 17.8 µM [activator, single point]	
CC(C)C[C@H](NC(=O)c1nc[nH]c1C(=O)N[C@@H](CC(C)C)C(=O)OC(C)(C)C)C(=O)OC(C)(C)C	inconclusive: 10 µM [activator, full curve]	
COc1ccc(OCC(=O)N2CCN(c3nnc(-c4ccc(C)cc4)c4ccccc34)CC2)cc1	inactive	
COc1ccc(N(C)C(=O)c2cc3c(s2)-c2ccccc2OC3)c(OC)c1	inconclusive: 28.2 µM [activator, single point]	
CCc1ccc2c(c1)C1(C(=O)N2)N2CCCC2C(C(=O)c2ccc3ccccc3c2)C12C(=O)Nc1ccccc12 (stereo unspecified)	inconclusive: 15.8 µM [activator, partial curve, poor fit]	
Cc1cccc(C(=O)Nc2nnc(S(=O)(=O)N3c4ccccc4CC3C)s2)c1 (stereo unspecified)	inactive	
CC(C)(C)N1C(=O)[C@H]2[C@@H](c3ccc(Br)cc3)N3C(=O)N(c4ccccc4)C(=O)[C@@]3(Cc3ccccc3)[C@H]2C1=O	inconclusive: 31.6 µM [activator, single point]	
COc1ccc(-n2c(SCC(=O)Nc3cc(C)c(NC(=O)c4ccccc4)cc3OC)nnc2-c2ccccc2F)cc1	inconclusive: 11.2 µM [activator, partial curve, poor fit]	
COc1ccc(S(=O)(=O)N2N=C(c3ccc(NS(C)(=O)=O)cc3)CC2c2ccco2)cc1 (stereo unspecified)	inconclusive: 28.2 µM [activator, single point]	
Cc1c(Cl)cccc1NC(=O)CCC(=O)c1cccs1	inactive	
O=C(CCc1ccccc1)Nc1ccccc1[N+](=O)[O-]	inactive	

SMILES	Potency	growth rescue (activation)
CC(C)(C)S(=O)N1Cc2cc(C(=O)NCc3ccc4c(c3)OCO4)nc(-c3cccc(-c4cc5ccccc5o4)c3)c2[C@@H]1CCO (stereo partly specified)	active: 28.2 µM	
Cc1[nH]c2ccccc2c1CN1CCc2ccccc2C1	inconclusive: 17.8 µM [activator, partial curve, poor fit]	
O=C(Cc1ccc(-c2ccccc2)cc1)Nc1ccccn1	inactive	
O=S(=O)(NC(=S)NC1CCCCC1)c1ccc(Br)cc1	inactive	
Cc1cc(NS(=O)(=O)c2ccccc2)n(-c2ccccc2)n1	inconclusive: 28.2 µM [activator, single point]	
CN(C)c1ccc(NC(=S)N(CCc2ccccc2)C2CC(=O)N(c3c(Cl)cccc3Cl)C2=O)cc1 (stereo unspecified)	inconclusive: 20 µM [activator, partial curve]	
COc1ccc(-c2csc(NC(=O)c3c(OC)cccc3OC)n2)cc1	inconclusive: 39.8 µM [activator, partial curve, poor fit]	
COc1ccc(S(=O)(=O)Nc2cccc3c2O[C@H](CN(C)Cc2ccc(Oc4ccccc4)cc2)[C@@H](C)CN([C@H](C)CO)C3=O)cc1	inconclusive: 20 µM [activator, partial curve, poor fit]	
Clc1cc(Sc2ccc(Br)cc2)nnc1-c1ccccc1	inactive	
CCOCCn1c(CN2CCN(c3ccc(F)cc3)CC2)nc2c1c(=O)n(C)c(=O)n2C	inconclusive: 3.98 µM [activator, partial curve, poor fit]	
CCc1nc(C(N)=O)c2[nH]c(=O)n(-c3ccc(OC)cc3OC)c2n1	inactive	
COC(=O)Cc1ccc(NC(=O)c2ccc(C(C)(C)C)cc2)cc1	inconclusive: 44.7 µM [activator, single point]	
COc1ccc(CCNC(=O)c2cc3c(=O)[nH]c4ccc(C)cc4c3s2)cc1OC	inactive	
Cc1cc(/C=C2\SC(=S)NC2=O)c(C)n1-c1cccc(O)c1	inactive	
Cc1nc2sc3c(c2c2nnc(SCC(=O)NCc4ccco4)n12)CCCC3	inconclusive: 31.6 µM [activator, partial curve, poor fit]	
COc1ccccc1CNC(=O)C(Cc1ccccc1)NS(=O)(=O)c1ccc2c(c1)CCN2C(C)=O (stereo unspecified)	inconclusive: 50.1 µM [activator, single point]	
CN1C(=O)c2cc(NC(=O)Nc3ccccc3)ccc2OC[C@H]2O[C@@H](CC(=O)NC3Cc4ccccc4C3)CC[C@@H]21	inactive	
COC(=O)[C@]12CCCCC=C1N(Cc1ccc3c(c1)OCO3)C(=O)[C@H](CC(=O)NCCc1ccccc1OC)C2	inconclusive: 28.2 µM [activator, single point]	
Cc1ccc(Cl)cc1N(C)C(=O)c1cc2ccc3cccnc3c2[nH]1	inconclusive: 50.1 µM [activator, single point]	
CCc1ccc(CNC(=O)c2cc3c(s2)-c2ccccc2OC3)cc1	inactive	
COc1ccc(-c2nc(SC(C)C(=O)NC3CC3)n[nH]2)cc1 (stereo unspecified)	inactive	

SMILES	Potency	growth rescue (activation)
COc1ccc(-c2nc3ccccc3c(C(=O)Nc3ccc(S(=O)(=O)Nc4cc(C)on4)cc3)c2C)cc1	inconclusive: 11.2 µM [activator, partial curve]	
Nc1cccc(S(=O)(=O)N2CCCN(S(=O)(=O)c3ccc4c(c3)OCCO4)CC2)c1	inactive	
CC(C)c1ccc(C(=O)Nc2ccc(S(=O)(=O)NC3=NCCCCC3)cc2)cc1	inconclusive: 28.2 µM [activator, single point]	
Cc1ccc(-c2cc(C(=O)NCCCn3ccnc3)c3cc(Br)ccc3n2)o1	inconclusive: 39.8 µM [activator, single point]	
COc1cccc(NC(=O)c2sc3nc(N4CCOCC4)c4c(c3c2N)CCCC4)c1	inconclusive: 5.01 µM [activator, full curve, poor fit]	
COc1ccc(/C=C2\CCC(C3CCCC3)C2=O)c(OC)c1OC (stereo unspecified)	inactive	
CC1(C)C(C=C(Cl)Cl)C1C(=O)Nc1ccc(S(=O)(=O)Nc2ncccn2)cc1 (stereo unspecified)	inconclusive: 35.5 µM [activator, single point]	
COc1cccc(N2CCN(C(=O)c3nc(-c4ccc(Cl)cc4)n4c3CCCCC4)CC2)c1	inconclusive: 50.1 µM [activator, single point]	
CC1=C(C)[N+](=O)C2CCCCC2N1[O-] (stereo unspecified)	inconclusive: 1.26 µM [activator, partial curve, poor fit]	
CN(C(=O)c1cccc(NC(=O)C2CCCN(C(=O)OC(C)(C)C)C2)c1)C1CCC1 (stereo unspecified)	inactive	
Cc1ccc(NC(=O)c2ccc(CN3CC(=O)N4CCCCC4C3=O)cc2)cc1C (stereo unspecified)	inactive	
Cc1nc(-c2ccc(NC(=O)c3ccc(Br)o3)cc2)cs1	inactive	
COc1ccccc1NS(=O)(=O)c1cccc(C(=O)NN)c1		inconclusive: 75.5% [activator]
Cc1ccc(Cl)cc1N1CCN(S(=O)(=O)c2ccc3c(c2)CC(=O)N3C)CC1	inactive	
CC(C)c1cnc2c(c1SCC(=O)Nc1cccc([N+](=O)[O-])c1)c(=O)n(C)c(=O)n2C	inactive	
C=C[C@](C)(CC[C@@]1(C)C(C)CC(OC2OC(C)C(OC3OC(COC(C)=O)C(O)C(O)C3O)C(O)C2O)[C@@]2(C)C(C)=CCCC12)OC1OC(C)C(O[C@@H]2O[C@@H](C)C(O)C(O)[C@H]2O)C(O)C1O (stereo partly specified)	inconclusive: 15.8 µM [activator, partial curve, poor fit]	
COc1cc(OC)cc(C(=O)N(Cc2cc3cc(C)ccc3[nH]c2=O)C(C)C)c1	inconclusive: 11.2 µM [activator, single point]	
Cc1cccc(NC(=O)CSc2nnc(-c3cc(C)n(-c4ccccc4)c3C)o2)c1C	inconclusive: 31.6 µM [activator, partial curve, poor fit]	
C=CCc1cc(OC)ccc1OCC(O)CN1CCN(c2ccc(OC)cc2)CC1 (stereo unspecified)	inactive	
